This is one part of the list.

The text below walks through data of article PMC12136788.

T1: UNK ZnF1-6 (called full-length) (human, UniProt Q9C0B0 30-357)
T1 sequence: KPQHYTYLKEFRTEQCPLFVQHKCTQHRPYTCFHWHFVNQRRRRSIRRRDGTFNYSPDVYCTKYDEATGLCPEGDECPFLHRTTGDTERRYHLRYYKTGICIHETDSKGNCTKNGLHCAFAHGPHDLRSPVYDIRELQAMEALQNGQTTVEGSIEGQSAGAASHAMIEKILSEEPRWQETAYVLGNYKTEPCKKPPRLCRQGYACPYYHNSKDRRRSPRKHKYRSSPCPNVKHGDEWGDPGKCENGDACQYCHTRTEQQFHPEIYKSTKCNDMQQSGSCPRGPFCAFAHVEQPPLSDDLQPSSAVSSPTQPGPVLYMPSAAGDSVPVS

B1: chr1:193014253:193014354:-|3pUTR|ENSG00000116750|unk|FALSE|unique (ssRNA)
RNA: GGGAGUUCUACAGUCCGACGAUCUUAAUAGGUAUAAGGAUUUUUCUUAUUAAUCUAAUAAAAUUCCUUAAUAGGAAUUUCCAUAGCUUAAGAGUGGUUUAUUUUAUCUGCAUCUUCUUUGGUGAUUGCAAAUCCCUUGUGAUACAACAGAGGAUUGAGCAUCA
B2: chr1:93365539:93365640:+|3pUTR|ENSG00000117505|unk|total|mutant (ssRNA)
RNA: GGGAGUUCUACAGUCCGACGAUCAGGAGGCAAAAUUGCACCCUGUUGAAAACCACCACCUCCGAUCAUCCCGGUUUUACUUUCCGGAUAAGACACUUGAGGGAAAGGCUGUGAAACUGAACCUCUGUCCGAAGCAACACACAGCAACAGAGGAUUGAGCAUCA
B3: chr3:58171454:58171555:+|3pUTR|ENSG00000136068|msi1|total|mutant (ssRNA)
RNA: GGGAGUUCUACAGUCCGACGAUCGGUGAUUAUUUCUUGCAGAAUCACCACACGAGACCAUCCCGGCAGUCAUGGUUUUGCUUCCGUUUUCCAAGUCCGUUUCAGUCCCUUCCUUGGUCUGAAGAAAUUCUGCAGUGGCGAGCACAACAGAGGAUUGAGCAUCA
B4: chr17:81922623:81922724:-|CDS|ENSG00000197063|msi1|total|mutant (ssRNA)
RNA: GGGAGUUCUACAGUCCGACGAUCUGCCGCCGGCCUGGGGCCCCUCGUCCCAGGCAAGGUGGCCGCCACCAGCGUCAUCACAACCGUAAAGUCCAAGACGGAUGCCCGAUCGCCGGGACGCGCGUCUGCCCAGGCGGGUCUUUGCAACAGAGGAUUGAGCAUCA
B5: ENSG00000198589:be:win_2901|CDS|ENSG00000198589|bound_else_gene|NA|bound_elsewhere_windowed (ssRNA)
RNA: GGGAGUUCUACAGUCCGACGAUCUUCAGUAGGAUCCCAGCAACCAGAUACGAAGGAUUCUCCUGUCUGUCCUCAUUUCACCACAAAUGGUAAUGAAAAUUCAAGUAUAGAGAAGACAAGUUCACUAGAAUCUGCAUCUAAUAUCAACAGAGGAUUGAGCAUCA
B6: chr22:36281679:36281692:-|3pUTR|ENSG00000100345|msi1_unk|FALSE|overlapping (ssRNA)
RNA: GGGAGUUCUACAGUCCGACGAUCUCUUGUGUCUACUCUAGGACUGGGCCCGAGGGUGGUUUACCUGCACCGUUGACUCAGUAUAGUUUAAAAAUCUGCCACCUGCACAGGUAUUUUUGAAAGCAAAAUAAGGUUUUCUUUUUUCAACAGAGGAUUGAGCAUCA
B7: chr12:24812190:24812291:-|3pUTR|ENSG00000060982|msi1|FALSE|unique (ssRNA)
RNA: GGGAGUUCUACAGUCCGACGAUCUUUACUAUCUCCUAUCCUGAUAGGUGGAAGGUUUACUGAAUUGGAAAUUGGUUGACUAUUAGUUUUUAACUAAAAUGUGCAAUAACACAUUGCAGUUUCCUCAAACUAGUUUCCUAUGAUCAACAGAGGAUUGAGCAUCA
B8: ENSG00000107863:be:win_4951|CDS|ENSG00000107863|bound_else_gene|NA|bound_elsewhere_windowed (ssRNA)
RNA: GGGAGUUCUACAGUCCGACGAUCGAGAGGCUUUUCCGAGGAAAACUGCAAGAAGUGACUAAGAGCAGCCGGAGAAAUUCUGAAGGAAGUGAAUUAAGUUGCACCGAGGGAAGUUUAACAUCAAGUUUAGAUAGCCGGAGACAGCAACAGAGGAUUGAGCAUCA
B9: chr8:120459219:120459329:+|CDS|ENSG00000172167|unk|total|mutant (ssRNA)
RNA: GGGAGUUCUACAGUCCGACGAUCUUUGGAUUUGAAAUCCGUUUUCCUGAAUUUUGUUUAAAGGGAGUCACACUUAAGAAUUUCCGUACUUCUAAUUUAAAUACUGACUUCCUUGCCAAAAAGAUCAUACCAUCAAAGGAUAAGCAACAGAGGAUUGAGCAUCA
B10: ENSG00000198589:be:win_5501|CDS|ENSG00000198589|bound_else_gene|NA|bound_elsewhere_windowed (ssRNA)
RNA: GGGAGUUCUACAGUCCGACGAUCUGCUUAUAGAAGGAACAAGUCUGGUUUGCAUGAAGUCGAGUAGUUCAGUUGUGGAAUUGGUUAUGCUACUGUGUUCUCAGGAGUGGCAAAAUUCUAUUCAGAAGAAUGCAGGCCUUGCUUCAACAGAGGAUUGAGCAUCA
B11: chr12:48782793:48782894:-|CDS|ENSG00000174233|msi1|total|mutant (ssRNA)
RNA: GGGAGUUCUACAGUCCGACGAUCGCACUGUUGGCCUGUGCCGCCGCCCUGUUCGUGGGGCUCAUGGUGGUGUGUAACCGGCACCGCUUCCGCCAGGACUCCAUGUGGGUGGUGAGCUACGUGGUGCUGGGCAUCCUGGCGGCACAACAGAGGAUUGAGCAUCA
B12: chr12:27755550:27755651:+|3pUTR|ENSG00000061794|msi1|FALSE|unique (ssRNA)
RNA: GGGAGUUCUACAGUCCGACGAUCAUACUAAUGCUUAAUGGCAAUGAUUACUCCAGAGUUUUUUAAUUUUUACACUGGGGCAAUAGACUAGGAGGUCUCUGAUUUCUUCUUGGUCUAAAGUGUUUUGAUUUUAUUUCUACAUAACAACAGAGGAUUGAGCAUCA
B13: chr4:121668310:121668420:-|3pUTR|ENSG00000164111|msi1_unk|total|mutant (ssRNA)
RNA: GGGAGUUCUACAGUCCGACGAUCCCUUCAGCACCUUCCGCUGCAUUUGUAUGCCAGUGCUUAACACAUUGCCUUAUUCAUACCCGCAUGCUCAUGACCAACACAUACACGUCACCGAAGAAAACCGUGGUGCUUCUUUCUGAUCAACAGAGGAUUGAGCAUCA
B14: chr16:31131432:31132008:-|three_prime_utr|ENSG00000052344|control|control|control (ssRNA)
RNA: GGGAGUUCUACAGUCCGACGAUCCCAUUCUUCUGGGUGUGCUUUUUGGGACCAUCACUGAGAGUCAGGAGUUUUACUGCCUGUAGCAAUGGCCAGAGCCUCUGGCCCCUCACCCACCAUGGACCAGCCCAUUGGCCGAGCUCCCAACAGAGGAUUGAGCAUCA
B15: chr10:121967677:121967791:-|CDS|ENSG00000107672|unk|total|mutant (ssRNA)
RNA: GGGAGUUCUACAGUCCGACGAUCAAAUCCGCCCGAAGCUGAAGAACUCAUCCGUGAUGAAGACCGUCCUGAUUUUGAAUUCACCGUCUAUGACUCCUGGAAGAUAACAGGCAGAACAGCAGAAAACACCUUUAAUAAAACCCACAACAGAGGAUUGAGCAUCA
B16: chr8:88032264:88032379:-|3pUTR|ENSG00000156103|unk|total|mutant (ssRNA)
RNA: GGGAGUUCUACAGUCCGACGAUCACUCCUUAUAAUGUUGCGUCAUUAAAGGUCAAGGGGUCAUGCUAUUAAUCUCAUUGCUACCGACCAUUAACAUGACUGAACUUUUCCACAAAGUACUUAUGUUUACAAUGCUAUAACCCUCAACAGAGGAUUGAGCAUCA
B17: chr11:134151495:134151596:+|3pUTR|ENSG00000166086|unk|total|mutant (ssRNA)
RNA: GGGAGUUCUACAGUCCGACGAUCCCGUGCCAUGGGAACCAGGUCUGAAAAAGCCGAGAGAAGUGAAAGCCGAGUCUGGGAAGCCGCUGCCUAUAACUGAGACCCGACGGAAAAGGAAUACUCGUGUAUUUUAAGAUAUGAAUGCAACAGAGGAUUGAGCAUCA
B18: chr1:232398519:232398625:-|3pUTR|ENSG00000116991|unk|total|mutant (ssRNA)
RNA: GGGAGUUCUACAGUCCGACGAUCACAGCCGUUUUAUUUCCACAGCCACAUUACCACCGCAAUAAGAAAGGAGGCACCGUACACCGUUGGAAAAGCUUUGUGGGGGGAUUAAAAAAAAAAAAAAGCACUGUUGUGUUUAACACUCAACAGAGGAUUGAGCAUCA
B19: chr7:127373434:127373542:-|CDS|ENSG00000048405|unk|total|mutant (ssRNA)
RNA: GGGAGUUCUACAGUCCGACGAUCAAAACACCGUGAUUCAAAACAUGAUGGCACUUCUAACUCUCCCCGUAAAAAGUAUGAAGCCGCUGACGUCGGUAUUGAAGUAAAAGUCACAAAAAACUUUUCUCUUCACAGAUGCAAUAACAACAGAGGAUUGAGCAUCA
B20: chr1:114568131:114568247:-|CDS|ENSG00000116752|unk|FALSE|bound_elsewhere (ssRNA)
RNA: GGGAGUUCUACAGUCCGACGAUCUUCUAGUUGGGUAUCCCUGGUCAGUAAGAAUUAUGAGAUUGAACGGACUAUUGUUCAGCUAGAAAAUGAAAUCUAUCAAAUUAAGCAGCAACAUGGAGAGGCAAACAAAGAAAACAUCCGCAACAGAGGAUUGAGCAUCA
B21: chr12:39553730:39553837:-|3pUTR|ENSG00000173208|unk|total|mutant (ssRNA)
RNA: GGGAGUUCUACAGUCCGACGAUCGAAGUAUGUUAAGCUAAGCACAGAGAAAAAAAGGCAGCAAGACAUGUUUUAUAAGAUUUCCGCAUUAAGGAAGUAUAUGAUCUGACUUUUCAGAAGAAAAUAAACAAAUGCAUUAUGUAACAACAGAGGAUUGAGCAUCA
B22: chr22:44243664:44249684:-|three_prime_utr|ENSG00000138944|control|control|control (ssRNA)
RNA: GGGAGUUCUACAGUCCGACGAUCGCACCCGGUGCAGCCUCCGAGAAGAACAACUUCUACAGAGAUGCCAGGGACAGCCGAGGUAGCGGCGGUGGCACAGGAGGAAAUGCUGCCUGUGCCCAAAGCCCCCUUCCGCGGACUUCUCAACAGAGGAUUGAGCAUCA

The experiment addresses T1, UNK ZnF1-6 (called full-length). As to the kind of experiment: nsRBNS (natural sequence RNA bind-n-seq); RBNS binding buffer (assumed for nsRBNS): 25 mM Tris pH 7.5, 150 mM KCl, 3 mM MgCl2, 0.01% Triton X-100, 500 ug/ml BSA, 20 U/ml SUPERase-In, 4 C; UNK is unkempt and MSI1 is Musashi-1; names of the RNAs are library labels; protein concentration not given here; high values mean tight binding.
Consider B1, for which the binding signal was determined as 0.854 enrichment R. B2 came in with a binding signal of 0.506 enrichment R.

With B3, the binding signal was found to be 0.531 enrichment R. The value for B4 was 0.549 enrichment R. The value for B5 was 0.268 enrichment R; that for B6 was 0.854 enrichment R; that for B7 was 0.421 enrichment R.

The molecule B8 came in with a binding signal of 0.786 enrichment R. The value for B9 was 0.659 enrichment R; that for B10 was 0.512 enrichment R; that for B11 was 0.707 enrichment R. The value for B12 was 0.565 enrichment R. With B13 the figure was 0.543 enrichment R; with B14, 0.803 enrichment R. Consider B15, for which the binding signal was 0.616 enrichment R. The value for B16 was 0.466 enrichment R; that for B17 was 0.643 enrichment R. For B18, the binding signal was determined as 0.635 enrichment R. With B19 the figure was 0.242 enrichment R; with B20, 0.794 enrichment R.

Regarding B21, the binding signal came to 0.622 enrichment R. With B22 the figure was 0.449 enrichment R.
